# From PubChem BioAssay AID662 (National Center for Advancing Translational Sciences (NCATS), 2007)
# Screen size: about 71,000 compounds; about 1,800 (2.5%) were called active. Inconclusive means that the source gave no clear call. Such entries were picked first, then a sample of the others. Calls come from the whole dose curve; as a rule, active = well fitted activation curve with a large enough effect in the signal ratio, with a control signal flat (not every such curve was filed as active); inconclusive = small, poorly fitted or top-dose-only effect, or effect the other way, or a change in a side signal; inactive = flat fitted curve, though single readings scatter; the % refers to the signal ratio. Potencies of inconclusive entries are doubtful fits and often do not repeat.
# Assay: Cell signaling CRE-BLA (Fsk stim); for activity change, negative = inhibition: % of control where 0% means no effect
# Details: CHO CRE-bla reporter (cAMP response element driving beta-lactamase), forskolin EC10, beta-lactamase ratio; activity change, negative = inhibition: at 38.2 µM (top of the series) unless noted
# Summary of the method: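 Cells were plated overnight at 37 °C, exposed to compound titrations plus EC10 NKH 477 for 3 h, then given CCF4 dye for 2 h at room temperature. Blue/green (460/530 nm) ratio was converted to %Activity and AC50 values calculated.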
# Potency is the fitted concentration of half-maximal effect; tags give direction and shape of the fitted curve.
SMILES,Potency,"activity change, negative = inhibition"
Cc1c(Nc2ncnc3nc[nH]c23)c(=O)n(-c2ccccc2)n1C,"inconclusive: 5.01 µM [rising, partial curve]",
COc1ccc(Oc2ncc3nc(-c4ccccc4)c(=O)n(CCC#N)c3n2)cc1,,inconclusive: 9.07%
Cc1nc2ccc(NC(=O)N3CCC(c4ccccc4)C3)cc2nc1C (stereo not drawn),"inconclusive: 10 µM [rising, partial curve]",
CN[C@H]1[C@@H](O[C@@H]2[C@H](O[C@@H]3[C@@H](O)[C@@H](O)[C@@H](N=C(N)N)[C@@H](O)[C@@H]3N=C(N)N)O[C@H](C)[C@@]2(O)C=O)O[C@@H](CO)[C@@H](O)[C@H]1O,,inactive: 0.271% [at 17.1 µM]
COc1ccc(C)cc1NC(=O)c1cc2cc3ccc(C)cc3nc2o1,,inconclusive: -4.05%
CCNc1nc(SC(C)C(=O)OC)nc(N2CCOCC2)n1 (stereo not drawn),"inconclusive: 10 µM [rising, partial curve]",
N#CCCn1c(SCC(=O)NCC2CCCO2)nc2ccccc21 (stereo not drawn),"inconclusive: 5.01 µM [falling, single point]",
Cc1ccc(-n2c(O)cnc2Nc2nc(C)cc(C)n2)cc1,,inconclusive: 17.7%
O=C(NCCN1CCOCC1)c1ccc(-c2ccccc2)cc1,,inactive: -8.27%
Cc1ccc(-c2noc(C3CCCN(C(=O)c4ccccc4)C3)n2)o1 (stereo not drawn),,inactive: 14.9%
Cc1ccc2nc3c(cc(C#N)c(=N)n3CC3CCCO3)c(=O)n2c1 (stereo not drawn),"inconclusive: 12.6 µM [rising, single point]",
Cc1ccc(S(=O)(=O)N2CCCN(S(=O)(=O)C3CCS(=O)(=O)C3)CC2)cc1 (stereo not drawn),,inactive: -1.24%
COC(=O)Nc1nc(C)c(C(=O)N(C)C)s1,,inconclusive: -1.25%
CSc1ncccc1C(=O)OCC(=O)Nc1cc(C(F)(F)F)ccc1N1CCOCC1,active: 12.6 µM,
Cc1ccc2cccc(SCC(=O)N3CCOCC3)c2n1,,inactive: -6.21%
COc1cccc(-c2ccc3ncnc(NC4CC4)c3c2)c1,,inconclusive: 19%
CSc1ccc(CN2CCC(O)CC2)cc1,,inconclusive: 5.53% [at 7.6 µM]
Cn1nc(C(=O)NCc2ccccn2)c2ccccc2c1=O,,inactive: 15.6%
Cn1c(=N)c(S(=O)(=O)c2ccc(Cl)cc2)cc2c(=O)n3ccccc3nc21,"inconclusive: 2.51 µM [rising, partial curve, poor fit]",
Cc1nc(C)c(C(=O)Nc2nc3c(C)cccc3s2)o1,,inconclusive: 18.7%
COc1cccc2cc3c(=O)n(-c4ccccc4)nc-3oc12,,inactive: 2.42%

SMILES,Potency,"activity change, negative = inhibition"
CC(=O)NCCn1c(SCc2cc(=O)n3cc(Cl)ccc3n2)nc2ccccc2c1=O,active: 0.631 µM,
CCOC(=O)C1CCN(C(=O)CC(NS(=O)(=O)c2ccc(OC)cc2)C(C)C)CC1 (stereo not drawn),,inconclusive: 16.7%
COc1cccc2cc(C(=O)Nc3cccnc3N3CCOCC3)c(=O)oc12,,inactive: 11%
Nc1nn(S(=O)(=O)c2cccc3nsnc23)cc1-c1ccc(Br)cc1,,inactive: -1.69%
CCC(C)NC(=O)C1c2ccccc2C(=O)N1Cc1cc(OC)ccc1OC (stereo not drawn),,inconclusive: -3.33%
O=C(Nc1nc(-c2ccco2)cs1)c1ccccc1,,inactive: -3.24%
CCOC(=O)c1nnn(-c2nonc2-n2cccc2)c1CN1CCC(C)CC1,,inconclusive: 5.71%
COc1ccc(C(=O)NCc2cn3cccc(C)c3n2)cc1OC,"inconclusive: 12.6 µM [rising, single point]",
CON(C)c1nc(OCCNC(=O)OCc2ccc(Cl)cc2Cl)nc(N(C)C)n1,,inconclusive: 21.2%
CCCCC(=O)Nc1cccc(-c2nnc(-c3ccccc3)o2)c1,"inconclusive: 12.6 µM [rising, single point]",
COc1ccc(OCC(=O)N2CCN(C(=O)COc3ccc(Br)cc3)CC2)cc1,,inactive: -8.58%
CC(=O)C1=C(O)C(=O)N(Cc2ccccc2)C1c1ccco1 (stereo not drawn),,inconclusive: -7.38%
Cc1nc2[nH]c(=O)c3c(n2n1)NC1=C(C(=O)CC(C)(C)C1)C3c1ccccc1 (stereo not drawn),,inconclusive: 8.52%
COc1ccc(-c2nnco2)cc1OC,,inconclusive: 16.1%
O=C(Nc1ccc2c(c1)OCO2)C1CC(c2ccccc2Cl)=NO1 (stereo not drawn),,inconclusive: -19%
CCOC(=O)c1sc(N)c(C#N)c1CSc1nc2ccc(OCC)cc2[nH]1,,inconclusive: 29.1%
O=C(CSc1nnc(C2CC2)n1Cc1ccccc1)c1ccc(S(=O)(=O)N2CCOCC2)cc1,,inactive: 0.82%
CCSc1nc2c(c(=O)n1CC)SC(C)C2 (stereo not drawn),"inconclusive: 15.8 µM [rising, single point]",
O=c1cc(-c2cccc(O)c2O)oc2ccccc12,,inconclusive: -22.6%
COc1cccc2[nH]c3c(N4CCN(Cc5ccc6c(c5)OCO6)CC4)ncnc3c12,,inactive: 19.4%
Cn1c(CNc2ccc(Cl)cc2)nc2ccccc21,,inactive: 2.51%

SMILES,Potency,"activity change, negative = inhibition"
Nc1sc2c(c1C(=O)NC1CCS(=O)(=O)C1)CCC2 (stereo not drawn),,inactive: 14.7%
O=c1c(-c2ccc(O)cc2)coc2cc(O)cc(O)c12,,inconclusive: -7.93%
COc1ccc2[nH]c(=O)c(CN(C(=O)NC3CCCCC3)C3CCCC3)cc2c1,,inactive: 10.3%
COCCn1c(=O)c(C)nc2cnc(OC)nc21,"inconclusive: 15.8 µM [rising, single point]",
COc1ccc(Cl)cc1CN1CCN(c2nc(C)cc(C)c2C#N)CC1,,inconclusive: 36.5%
Cc1cc(Cl)cc(C)c1OCCCCn1ccnc1,"inconclusive: 6.31 µM [rising, partial curve]",
CCOC(=O)Nc1ccc2c(c1)N(C(=O)CCN1CCOCC1)c1ccccc1S2,"inconclusive: 12.6 µM [rising, partial curve]",inconclusive: 20% [at 17.1 µM]
COc1ccccc1CN(Cc1cc2c(C)ccc(C)c2[nH]c1=O)Cc1nnnn1Cc1ccco1,"inconclusive: 3.98 µM [rising, single point]",
O=C(Nc1ncnc2sc3c(c12)CCC3)c1ccco1,,inconclusive: 24.1%
CSCCC(NC(N)=O)C(=O)NCC1CCCCC1 (stereo not drawn),"inconclusive: 3.98 µM [falling, single point]",
c1ccc(-c2nnn(C34CC5CC(CC(C5)C3)C4)n2)cc1,"inconclusive: 10 µM [rising, single point]",
Oc1ccc(-c2nc3cnccn3c2Nc2ccc3c(c2)OCCO3)cc1,,inconclusive: -23.1%
Cc1cccc(-n2ncc3c(NCc4ccc5c(c4)OCO5)ncnc32)c1,"inconclusive: 1 µM [rising, partial curve]",
COCCCNC(=O)Cn1nnc(-c2ccccc2NC(=O)c2ccccc2F)n1,,inactive: 4.2%
O=C(C1CC1)N(CCc1ccccc1)Cc1nc2ccccc2c(=O)[nH]1,,inconclusive: -2.42%
CCOC(=O)c1cc2c(ccn2C)n1CC(=O)N1CCC(Cc2ccccc2)CC1,"inconclusive: 2 µM [falling, partial curve]",
Nc1nc(N2C(=O)C3CC=CCC3C2=O)nn1-c1ccccc1 (stereo not drawn),,inactive: 3.69%
COC(=O)c1[nH]c2ccc(C)cc2c1NS(=O)(=O)c1ccc(F)c(C)c1,"inconclusive: 12.6 µM [rising, single point]",
CC(C)(C)Nc1nc(OCC(F)(F)F)nc(OCC(F)(F)F)n1,,inconclusive: 20.4%
CC(C)CCn1c(=O)c2ccccc2n2c(CN(C)Cc3ccccc3)nnc12,"inconclusive: 10 µM [rising, single point]",
O=C(NCc1ccco1)c1cc(-c2cccnc2)nc2ccccc12,,inactive: 15.7%

SMILES,Potency,"activity change, negative = inhibition"
O=C(CCn1nc(-c2ccc(Cl)cc2)ccc1=O)N1CCN(c2ccccn2)CC1,active: 3.98 µM,
CC(C)CCNC(=O)CCCOc1cc(=O)n(C)c2ccccc12,"inconclusive: 10 µM [rising, single point]",
CCSc1ccccc1C(=O)n1nnc2ccccc21,"inconclusive: 1.26 µM [falling, full curve, poor fit]",
CCOC(=O)CSc1nnc(-c2nnc(SCC(=O)OCC)n2CC)n1CC,,inconclusive: 24.7%
NC(=O)c1cnn2c(C(F)(F)F)cc(-c3ccccc3)nc12,"inconclusive: 25.1 µM [rising, single point]",
COc1nc(NCCc2ccc(OC)c(OC)c2)nc(OC)n1,"inconclusive: 10 µM [rising, partial curve]",
Cc1nc(C)c(-c2csc(NCc3ccccc3)n2)s1,"inconclusive: 20 µM [rising, single point]",
CCOC(=O)Cn1c(=O)c2c(nc(N3CCCCC3)n2Cc2ccccc2)n(C)c1=O,"inconclusive: 6.31 µM [rising, partial curve]",
Fc1ccc(CNc2nc(-c3ccco3)cc(C(F)(F)F)n2)cc1,,inactive: -3.83%
CN=C(NC#N)NCCSCc1nc[nH]c1C,,inconclusive: -13.4%
CCOC(=O)c1cnc2ccccc2c1NCCO,"inconclusive: 25.1 µM [rising, single point]",
COc1cc(OC)cc(-c2nnc(SCc3c(F)cccc3Cl)o2)c1,"inconclusive: 6.31 µM [rising, partial curve]",
CCCS(=O)(=O)NCCc1cc2ccc(OC)cc2[nH]c1=O,,inactive: 6.32%
CCOc1cc2[nH]c(=S)n(CCCOC)c(=O)c2cc1OCC,active: 12.6 µM,
Cc1c(C(=O)N2CCN(c3ccccc3)CC2)sc2ncnc(N3CCN(c4ccccc4)CC3)c12,,inconclusive: -11.3%
COc1ccc(OCC(=O)N2CCN(c3cccc(C(F)(F)F)c3)CC2)cc1,,inconclusive: -16.8%
Cc1cc(N2CCCCCC2)nc(-c2ccccc2O)n1,,inactive: 15.4%
CC1Cc2ccccc2N1S(=O)(=O)c1cccc2nsnc12 (stereo not drawn),"inconclusive: 1 µM [rising, partial curve, poor fit]",
NCCO,,inactive: -14%
